In PubChem BioAssay AID1645882 (National Center for Advancing Translational Sciences (NCATS), 2021):
About 120 (0.75%) of roughly 16,000 compounds were called active. Not shown: some 4% with an inconclusive outcome. Calls follow the shape of the dose curve; as a rule, active = well fitted inhibition curve with a large enough effect; inconclusive = small, poorly fitted or top-dose-only effect; inactive = no such curve, though single readings can be large or run the other way. Some of the results follow.

Target: Rap guanine nucleotide exchange factor 3 (Homo sapiens) (UniProt O95398)
Chain of UniProt O95398 (O95398 whole entry, looked up): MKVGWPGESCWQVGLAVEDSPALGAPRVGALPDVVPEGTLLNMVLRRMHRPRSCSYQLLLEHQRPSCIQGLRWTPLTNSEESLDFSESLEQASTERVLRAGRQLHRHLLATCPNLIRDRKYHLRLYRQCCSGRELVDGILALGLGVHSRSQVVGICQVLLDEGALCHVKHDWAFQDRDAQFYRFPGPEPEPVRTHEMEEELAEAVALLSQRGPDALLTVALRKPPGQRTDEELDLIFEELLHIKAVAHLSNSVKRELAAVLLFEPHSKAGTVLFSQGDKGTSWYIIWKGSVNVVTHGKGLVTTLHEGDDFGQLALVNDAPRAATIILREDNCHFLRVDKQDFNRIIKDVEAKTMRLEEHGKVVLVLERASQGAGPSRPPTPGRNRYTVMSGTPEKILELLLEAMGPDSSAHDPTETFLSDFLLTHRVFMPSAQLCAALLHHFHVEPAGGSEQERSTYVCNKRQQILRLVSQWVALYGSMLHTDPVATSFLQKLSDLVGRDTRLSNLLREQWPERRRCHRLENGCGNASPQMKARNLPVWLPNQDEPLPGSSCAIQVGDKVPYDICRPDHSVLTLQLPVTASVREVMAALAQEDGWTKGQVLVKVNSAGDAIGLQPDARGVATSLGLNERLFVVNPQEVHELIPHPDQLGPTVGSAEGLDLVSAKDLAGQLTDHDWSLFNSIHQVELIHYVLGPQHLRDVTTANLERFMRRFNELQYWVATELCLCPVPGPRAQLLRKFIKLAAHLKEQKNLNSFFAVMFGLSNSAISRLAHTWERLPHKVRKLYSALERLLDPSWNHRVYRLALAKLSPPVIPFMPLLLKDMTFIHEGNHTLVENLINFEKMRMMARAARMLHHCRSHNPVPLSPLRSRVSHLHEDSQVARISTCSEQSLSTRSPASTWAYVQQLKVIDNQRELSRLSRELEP
Assay: Validation qHTS for antagonist of cAMP-regulated guanine nucleotide exchange factor 3 (EPAC1);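 also: plate controls were DMSO for no effect and ATA control for full effect; nearly all actives have a fitted effect of over 75% in size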
Details: EPAC1 Rap1B-BODIPY-GDP exchange, fluorescence; series mostly up to 150 µM; activity change, negative = inhibition: at the top concentration
Summary of the method: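 EPAC1 (100 nM) mixed with 250 nM RAP1B-BODIPY-GDP and 50 uM GDP; compounds in concentration series, 5 min at room temperature. Fluorescence (ex 480/em 540 nm) read every 5 min for 30 min; normalized to ATA control and DMSO.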

| Compound | activity change, negative = inhibition |
| --- | --- |
| Cc1cccnc1-c1cccc2c1OC(CNC(=O)Cc1c(C)noc1C)C2 (stereo not drawn) | inactive: 27.1% |
| CCOC(=O)[C@H](CCc1ccccc1)N[C@H]1CS[C@H](c2cccs2)CN(CC(=O)O)C1=O | inactive: -4.47% |
| CCCCC[C@H]1CN(Cc2ccccc2)C(=O)[C@@H]1CC(=O)NCc1ccc(OC)cc1 | inactive: -11% |
| O=C1NC(=O)/C(=C/c2ccc3nccnc3c2)S1 | inactive: 21% [at 75.8 µM] |
| CN1CCCN(C(=O)[C@@H]2C[C@@H](Sc3nc4ccccc4[nH]3)CN2Cc2ccc(-c3ccccc3)cc2)CC1 | inactive: 19.3% |
| NC(N)=NN=C(/C=C/c1ccc([N+](=O)[O-])o1)/C=C/c1ccc([N+](=O)[O-])o1 | inactive: -6.1% |
| CCC1CN(Cc2cn[nH]c2-c2ccc(OC)cc2)Cc2cc(OC)ccc2O1 (stereo not drawn) | inactive: -10.2% |
| CCc1cccc2c(C(O)(c3c[nH]c4c(CC)cccc34)c3c[nH]c4c(CC)cccc34)c[nH]c12 | inactive: -0.649% |
| c1ccc(-c2cccc(N3CCC4(CCNCC4)CC3)c2)cc1 | inactive: 16.5% |
| CO/N=C(\C(=O)N[C@@H]1C(=O)N2C(C(=O)[O-])=C(C[n+]3ccc(N)n3CCO)CS[C@H]12)c1csc(N)n1 | inactive: 18.1% |
| c1ccc(CNc2ncnc3ccc(-c4ccoc4)cc23)cc1 | inactive: 4.34% |
| COc1ccc(-c2cc3ncc(C)n3c(Nc3ncccc3C(N)=O)n2)cc1OC | inactive: -1.24% [at 75.8 µM] |
| CN(C)c1ncc2nc(-c3ccc(F)cc3)c(=O)n(-c3ccccc3)c2n1 | inactive: 51.6% |
| O=C1CCNCCN1[C@H](CO)Cc1ccccc1 | inactive: 11% |
| CCc1cc(C(=O)N2CCOc3ccc(CN4CCN(Cc5ccccn5)CC4)cc3C2)no1 | inactive: 10% |
| O=C(NCc1nnc2n1CCN(C(=O)c1cccc(Cl)c1)CC2)C1CC1 | inactive: -8.32% |
| CN(C)CC/C=C1\c2ccccc2Sc2ccc(Cl)cc21 | inactive |
| c1ccc([C@H]2CN3CCSC3=N2)cc1 | inactive |
| CN1C[C@H]2c3ccccc3Oc3ccc(Cl)cc3[C@@H]2C1 | inactive: -2.83% |
| Cc1oc(-c2ccccc2NC(=O)c2ccccn2)nc1CNC(=O)c1cccc(C#CC(C)(C)O)c1 | inactive: -6.52% |
| CC[C@]1(O)C[C@@H]2CN(CCc3c([nH]c4ccccc34)[C@](C(=O)OC)(c3cc4c(cc3OC)N(C=O)[C@H]3[C@@](O)(C(=O)OC)[C@H](C(=O)OC)[C@@]5(CC)C=CCN6CC[C@]43[C@H]65)C2)C1 | inactive: -5.71% |
| O=S1(=O)CCO[C@H]2Cc3ccccc3[C@H]2N1Cc1ccccc1Br | inactive: 5.3% |
| CCC(=O)O[C@]1(C(=O)CCl)[C@@H](C)C[C@H]2[C@@H]3CCC4=CC(=O)C=C[C@]4(C)[C@@]3(F)[C@@H](O)C[C@@]21C | inactive: -9.91% |
| Cc1c(C(=O)NCC2(N3CCOCC3)CCCC2)cnn1-c1nccc(-c2ccccc2F)n1 | inactive: -12.7% |

| Compound | activity change, negative = inhibition |
| --- | --- |
| CC(=O)OC1CC(OC(C)=O)[C@]2(C)C(CC(=O)[C@]3(C)C2CC[C@@]2(C)C(c4ccoc4)OC(=O)C4O[C@@]423)C1(C)C (stereo partly drawn) | inactive: 0.54% |
| Cc1ccc([N+](=O)[O-])cc1S(=O)(=O)N(C)C | inactive: -6.37% [at 75.8 µM] |
| CC#C[C@]1(O)CC[C@H]2[C@@H]3CCC4=CC(=O)CCC4=C3[C@H](c3ccc(N(C)C)cc3)C[C@@]21C | inactive: -2.1% |
| CN(C)c1nc2cc3c(cc2cc1CN(CC1CCCO1)C(=O)c1cccc(F)c1)OCO3 (stereo not drawn) | inactive: 13.3% |
| O=C(c1ccncc1)N1CCC2(CCC(CNC(=O)C3(N4CCOCC4)CCCCC3)O2)CC1 (stereo not drawn) | inactive: 6.11% |
| Cc1c(O)c(=O)ccn1C | inactive: 6.69% |
| COc1cc(=O)n2c(c1C(=O)NC(C)c1ccco1)CCN(C(=O)c1[nH]c(C)cc1C)CC2 (stereo not drawn) | inactive: -1.48% |
| C#C[C@]1(OC(C)=O)CCC2C3CCC4=CC(=O)CCC4C3CC[C@]21C (stereo partly drawn) | inactive: -12.6% |
| C=C(Nc1ccc(OCC)cc1)Nc1ccc(OCC)cc1 | inactive |
| O=C(c1cc(C(F)(F)F)cc(C(F)(F)F)c1)N1CCC2(CCCN(Cc3ccncc3)C2)CC1 | inactive: -1.48% |
| Cn1c(=O)c(-c2cccs2)nc2cnc(N3CCNCC3)nc21 | inactive: 23.4% |
| COc1ccc(C(=O)N2CCC3(CCN(Cc4ccccc4)CC3)CC2)cc1 | inactive: 12.4% |
| O=C(O)CCCCCCCCc1cn(CN2C(=O)c3ccccc3C2=O)nn1 | inactive: 6.62% |
| O=C(O)C=Cc1ccc(Cn2ccnc2)cc1 | inactive: 7.55% |
| Cc1ncc2c(c1CNS(=O)(=O)N(C)C)CCN(C(=O)c1ccccc1F)C2 | inactive: 26.7% |
| Oc1cc2c(cc1O)[C@H](c1ccccc1)CNCC2 | inactive: 0.272% |
| COc1ccccc1CC(Cc1nc2ccccc2[nH]1)c1nc2ccccc2[nH]1 (stereo not drawn) | inactive: -18.7% |
| COC(=O)c1ccc(CN2CCC3(CCC(CNC(=O)c4ccccc4)O3)CC2)cc1 (stereo not drawn) | inactive: 14.2% |
| COC(=O)N1CCC[C@@]2(CCN(Cc3cc(C(F)(F)F)cc(C(F)(F)F)c3)C2)C1 | inactive: 11.1% |
| COCc1c(C(=O)N2CCCC(C)C2)cnn1-c1nccc(-c2cc(C)sc2C)n1 (stereo not drawn) | inactive: 9.72% |
| OC(c1cccnc1)c1ccc2c(c1)CN(Cc1ccc(-c3ccccc3Cl)o1)CCO2 (stereo not drawn) | inactive: 7.6% |
| c1ccc(C(c2ccccc2)N2CCC3(CCNCC3)CC2)cc1 | inactive: 4.21% |
| Clc1ccccc1-c1nccc(NCc2cccs2)n1 | inactive: -8.7% |
| COCCNc1nc(-c2ccccc2C(F)(F)F)nc2ccccc12 | inactive: 9.31% |
